From the supplement of paper PMC3334620
Over roughly 33,000 sequences, “E-score (-0.5 to 0.5)” has its median near -0.012; the highest 2% begin near 0.27. The list shows a part of the results.

target: T1, Vhr1 (UniProt P40522); experiment: PBM E-score (8-mer binding enrichment) (E-score (-0.5 to 0.5)); higher = stronger / more preferred TF binding; most listed sequences are background and not binding sites; settings: protein concentration: 200 nM; construct: GST-full length
T1 sequence: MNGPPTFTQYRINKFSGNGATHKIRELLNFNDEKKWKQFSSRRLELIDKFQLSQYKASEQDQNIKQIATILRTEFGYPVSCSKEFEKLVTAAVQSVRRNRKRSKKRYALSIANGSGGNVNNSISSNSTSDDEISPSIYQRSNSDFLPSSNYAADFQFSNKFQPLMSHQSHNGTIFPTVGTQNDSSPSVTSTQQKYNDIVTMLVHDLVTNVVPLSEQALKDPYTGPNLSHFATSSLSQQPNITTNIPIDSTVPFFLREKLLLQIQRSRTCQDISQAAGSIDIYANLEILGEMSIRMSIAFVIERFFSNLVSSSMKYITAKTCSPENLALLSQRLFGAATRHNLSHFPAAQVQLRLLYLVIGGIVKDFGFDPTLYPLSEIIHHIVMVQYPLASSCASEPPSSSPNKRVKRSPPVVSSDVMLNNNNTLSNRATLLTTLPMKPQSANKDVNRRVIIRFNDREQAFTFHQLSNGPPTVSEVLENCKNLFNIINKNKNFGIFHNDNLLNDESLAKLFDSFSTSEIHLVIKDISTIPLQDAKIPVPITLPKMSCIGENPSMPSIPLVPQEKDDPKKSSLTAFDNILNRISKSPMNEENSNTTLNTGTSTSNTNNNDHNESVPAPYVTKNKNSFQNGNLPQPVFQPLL
Procedure, shortened: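 Universal all-10-mer Agilent arrays, double-stranded by primer extension on fresh or once-stripped slides, were probed with about 100-200 nM GST-tagged yeast transcription factors made by PURExpress. Fluorescent anti-GST detected bound protein, and masliner normalised the scans. E-scores from the Universal PBM Analysis Suite were given to each ungapped eight-base word pooled with its reverse complement.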

Sequence	PBM E-score
AAACAAAA	-0.188
TACCTAGA	-0.0215
AACTAGGG	-0.106
ACAAAAAA	-0.13
CGCCTGCA	-0.134
ACGGACTG	-0.029
CGAACTAA	-0.066
AGCCCGCT	-0.163
CGACCATA	0.146
ATACGTCG	0.0102
AAAGACAT	-0.212
TACAAATA	0.065
CGGACCAC	0.114
CATTTGTA	0.0163
AAAGTTAC	0.0113
AGGGGCAT	-0.205
GGTATTAA	0.112
AGACTGAG	-0.0761
GCGATAAC	-0.133
CATGTGAG	0.0613
AAAAACCA	-0.051
GGAAATCC	-0.096
GACGACGA	-0.051
CTACATCA	0.222
TAGTATCA	0.197

Sequence	PBM E-score
GAAAGGAA	-0.0483
AGGTGATG	0.0344
GCACTGTA	0.0123
ATTGGAAC	0.0853
AATGACCT	-0.0434
CCATGGAA	0.114
GTGTGGAA	-0.132
CTCTGTTA	0.182
AGTAGAGG	-0.129
TAACTGTA	0.00513
AGTTACGC	-0.211
GCCACGAC	0.11
CTGACCAG	0.168
ATAGACGG	0.00408
AGCGAGAG	0.0482
ATGTCGTC	-0.034
ACTTCGCC	0.00702
CGAGTTCA	0.115
AAGGATAC	-0.00093
GGGCCTAA	-0.243
CCTTTACA	-0.259
CCACGATA	0.146
AAACTGAA	-0.152
ACGACCGG	-0.0928
AAGGGTTC	-0.0737

Sequence	PBM E-score
ACTTATTG	-0.131
ATTATGTG	0.249
AACAGCCA	0.0303
CTCTAATA	-0.136
ACCTCGTG	-0.101
AAACCCTG	-0.068
CCCCAGCG	-0.108
CACTCGGG	-0.078
TACCCCAA	0.0135
AGGTGCTG	-0.0578
AAAATTAG	-0.105
AACGAGAC	-0.063
CATACAAA	-0.0286
AATACAGT	0.154
CTCACGTA	-0.0754
AAGTTTAA	-0.367
AAAGGGTT	-0.245
CGAACGTC	-0.187
ACATACAA	0.0236
GACCTGCA	0.0231
ATGCCTGA	0.0818
ATTAGCCC	-0.223
CTCCCAAG	-0.131
GTCCTTCA	-0.0346
CATCCGTC	0.0362

Sequence	PBM E-score
AGATTGCC	-0.0927
CGACAATA	0.0881
TCGCATAA	0.0102
GTGATACA	0.163
GAATGCCC	-0.118
ATGTGGAG	0.055
CACGCCCG	0.114
CCAGATTC	-0.176
TCGCAGCA	0.0961
GAAACATC	-0.14
ACCTAATC	0.212
AAAGATAT	0.196
GGAAGCAA	-0.304
GACACGGC	0.147
ATCATTTA	0.132
CATAAGGC	0.00616
ATTGCGCG	0.125
AAGTAATC	0.224
CCATGCCA	0.122
AGTGAAAG	-0.222
CAAGGTCA	-0.199
ATTCTCGC	-0.246
ATGTGTGA	0.29
ATCTTTCC	-0.185
GATACGTA	-0.0446

Sequence	PBM E-score
CCCGTTTC	-0.169
CAGGATAG	0.197
AGGTGCCC	-0.234
ATGAACAT	0.0812
CAAACTAG	-0.0421
ATCTTGGC	-0.0511
GAACAGTC	0.0702
AGAAAGAG	-0.23
ACTCAGGC	0.259
CCTGTCAA	0.0681
AGCACCCT	-0.102
GTTATGTA	0.0138
ATCCATTG	0.127
GGCATGGA	-0.00291
AGCGCCAG	-0.161
CTGAATGC	-0.0924
AACATATC	0.174
CGGGAGAC	-0.0366
GCTCGGGA	-0.0256
AGGAGCTG	-0.136
AAGGGCGA	-0.0832
TCCAGGGA	-0.0164
CACACTCC	0.0928
ACAGGGCG	0.111
ATCCCGTG	0.154

Sequence	PBM E-score
CCTGCGAG	0.003
GCTAGACA	-0.00423
GGATAGAA	-0.064
CGGCTGTA	-0.0513
CTCCTGAA	-0.102
AACCGAAG	-0.125
AGACGTAA	-0.146
AAGATACC	0.17
GCCCTGCA	-0.04
CGGTTACA	0.0813
CGTGATAG	-0.102
CATTACCC	-0.0505
CATCGCCC	0.108
CTAAACTA	-0.13
CGCCCAAG	-0.152
TCGAATAA	-0.207
CCAGACAC	-0.0651
CTCGGTCC	0.091
AAGGGCGT	-0.168
AGGTAACG	-0.0471
CATTTTCG	0.0744
CACTCTCG	0.07
ACAGGCTA	-0.042
TGATTAAA	0.0338
ACCGAGAT	0.105

Sequence	PBM E-score
ATTTTAAG	-0.311
AGTAGTGC	0.0273
GCCTAAAC	-0.277
ATGGCCGA	-0.00719
GGCGGCAA	-0.00812
TCGGGTAA	0.0048
CGGCCTGC	-0.203
AGCGCGTG	0.0743
GCGGAGAC	0.252
ATTCCACG	-0.0247
TGACACCA	0.213
CGGAAGCC	-0.0668
AGTGGCGA	0.102
GCAACATA	-0.162
GTGTCTGA	0.171
GCGAAGAA	-0.191
GTGTCCTA	0.084
CCACCTCC	-0.0821
ACTTCCGA	0.0496
CGTTCAGC	-0.065
GAATACGC	0.0617
ACCGTCAA	-0.135
